Screen size: about 48,000 compounds; about 120 (0.25%) were called active. Roughly 4% stayed inconclusive and do not appear here. Calls follow the shape of the dose curve; as a rule, active = well fitted activation curve with a large enough effect; inconclusive = small, poorly fitted or top-dose-only effect, or another doubt; inactive = no such curve, though single readings can be large or run the other way. The list shows a part of the results.
Assay: Primary qHTS for Identification of Small Molecule Activators of Huntingtin-Antisense Promoter Activity; also: nearly all actives have a fitted effect of over 55% in size
Settings: HEK293 HTT-AS promoter firefly luciferase reporter, 24 h; series mostly up to 57.5 µM; activity change, positive = activation: at the top concentration
In short: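 HEK293 Fluc reporter, 2,500 cells/well, 24 h pre-culture; cpds up to 57.5 uM final, 24 h 37 degrees C; Dual-Glo, 10 min RT; normalized vehicle = 0%, zero RLU = -100%.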

Structure (SMILES) | activity change, positive = activation
Oc1cn2c(n1)Nc1ccc(Cl)c(Cl)c1C2 | inactive: -2.84% [at 25.1 µM, percent change from vehicle, -100% = no light]
CCOC(=O)CC(=O)CSc1nc2ccccc2c(=O)n1-c1ccc(C(=O)NCCOC)cc1 | inactive: -3.1%
CS(=O)(=O)c1cccc(CNc2nc(Nc3ccc4c(c3)CCC(=O)N4)ncc2C(F)(F)F)c1 | inactive: 15.3%
COC(=O)c1ccc(C(=O)OC)c(NC(=O)N2CC3CCCN3c3ccccc32)c1 (stereo unspecified) | inactive: -26.6%
CCOc1ccccc1NC(=O)CSc1nc2c([nH]c3ccccc32)c(=O)n1-c1ccccc1 | inactive: -26.7%
O=C(CC1NCCNC1=O)Nc1ccccc1F (stereo unspecified) | inactive: -6.26%
CCOC(=O)c1c(-c2ccc(C)cc2)csc1NC(=O)c1cc(=O)c2cc(Cl)ccc2o1 | inactive: -5.33%
Cc1ccc(Cl)cc1N1CCN(C(=O)c2cc3c(=O)n(C)c4ccccc4c3s2)CC1 | inactive: -13%
CCn1c(=O)sc2cc(NC(=O)c3cccc(OC)c3)ccc21 | inactive: 12.3%
COc1ccc(C2CC(=O)c3c(C)nc(N4CCN(C=O)CC4)nc3C2)c(OC)c1 (stereo unspecified) | inactive: -23.7%
CCN1CCN(c2nnc(-n3cccc3C(=O)Nc3cccc(OC)c3)s2)CC1 | inactive: 11.6%
O=C(Cn1ccn(-c2ccc(F)c(F)c2)c(=O)c1=O)c1ccc(F)cc1 | inactive: -19%
CC(C)c1nn2c(=O)cc(COC(=O)CNC(=O)c3ccccc3Cl)nc2s1 | inactive: -3.29%
CCOc1ccc(Cn2c(CNS(=O)(=O)c3c(C)cc(C)cc3C)nc3cccnc32)cc1 | inactive: -11.4%
Cc1nnc(NC(=O)CSc2nccn2-c2ccc(Cl)cc2)s1 | inactive: -14.8%
CCC(C)n1c(SCc2ccc(C(C)(C)C)cc2)nc2ccsc2c1=O (stereo unspecified) | inactive: -13.2%
CCCCCCCCCCC[C@@H](C[C@@H]1OC(=O)[C@H]1CCCCCC)OC(=O)[C@H](CC(C)C)NC=O | inactive: -1.48%
Cc1cccc(C)c1Nc1c(-c2cccs2)nc2ncccn12 | inactive: -26.5%
CCCCC(=O)Nc1cc2nn(-c3ccc(OCC)cc3)nc2cc1C | inactive: 26.4%
Cc1ccc(OCC(=O)Nc2cc(-c3nc4ccccc4[nH]3)ccc2C)c(C)c1 | inactive: -22.8%
Cc1cccc(Cn2cc(S(=O)(=O)c3ccc(Cl)cc3)c(=O)c3cc4c(cc32)OCO4)c1 | inactive: -20.2%

Structure (SMILES) | activity change, positive = activation
Cn1c(=O)c2c(SCC(=O)NCC3CCCO3)nc(-c3cccc(F)c3)nc2n(C)c1=O (stereo unspecified) | inactive: -9.81%
Cc1cccc(OCCSc2nc3ccc(NC(=O)c4cccs4)cc3s2)c1 | inactive: -28.3%
O=C(C1CC1)N1CCc2cc(Br)cc(S(=O)(=O)N3CCN(c4cccc(Cl)c4)CC3)c21 | inactive: 1.06%
CCOC(=O)c1cc(-c2ccccc2)n(-c2cccc(C(=O)Nc3cccc(C)c3)c2)c1C | inactive: -15.8%
O=C(Nc1ccc2nc(SCC(=O)N3CCCC3)sc2c1)c1ccc(Br)cc1 | inactive: -17.1%
Cc1ccc(CSc2ccc3nnc(CCNS(=O)(=O)c4ccc(C)cc4)n3n2)cc1 | inactive: -22.3%
Cc1cccc(OCC(=O)OCc2cc(=O)n3nc(-c4cccs4)sc3n2)c1 | inactive: 14%
CCc1nn(Cc2cccc(F)c2)c(=O)c2cc3cc(C)ccc3n12 | inactive: -10.9%
NCC1CCC(C(=O)O)CC1 (stereo unspecified) | inactive: -9.96%
Cc1ccc(-n2ncc(C(=O)N3CCN(c4ccccn4)CC3)c2C2CCN(C(=O)OC(C)(C)C)CC2)cc1 | inactive: -1.26%
CCC(C)NC(=O)Cn1c(=O)n(-c2ccc(Cl)c(Cl)c2)c(=O)c2c(C)c(C(=O)N(CC)CC)sc21 (stereo unspecified) | inactive: -16.7%
Cc1ccc(NC(=O)c2cc(S(=O)(=O)N3CCCc4ccccc43)ccc2F)cc1F | inactive: -36.6%
COC(=O)c1ccccc1NC(=O)Cn1c(=O)nc(-c2ccccc2)c2cc(Cl)ccc21 | inactive: -3.36%
COc1ccccc1CCNC(=O)Cc1c(C)c2cc3c(C(C)(C)C)coc3c(C)c2oc1=O | inactive: -16.2%
COc1ccc(CCNC(=O)c2ccc(-n3c(C)cc4c3CCCC4)cc2)cc1OC | inactive: 9.05%
CCCc1cc(=O)[nH]c(SCc2nc(-c3ccc(C)cc3)no2)n1 | inactive: -16.7%
Cc1cccc(NC(=O)Cn2cnc(S(=O)(=O)N3CCCC3)c2)c1C | inactive: -12.4%
CC(C)Oc1ccc(CNC(=O)Nc2ccc3c(c2)N(C)C(=O)c2ccccc2S3)cc1 | inactive: -50.3%
CCCSc1ncc(Cl)c(C(=O)Nc2c(C(=O)Nc3ccccc3)oc3ccccc23)n1 | inactive: -4.83%
COc1ccc(N2CCN(S(=O)(=O)CCNC(=O)COc3cccc(OC)c3)CC2)cc1 | inactive: -4.7%
Cc1cccc(Cn2c(SCc3ccc(C(=O)N4CCC(C)CC4)cc3)nc3ccncc32)c1 | inactive: -30.3%

Structure (SMILES) | activity change, positive = activation
CSc1ncc(C(=O)NCc2ccc(Cl)cc2)c(C(F)(F)F)n1 | inactive: -12.7%
CCOC(=O)CSc1nc(-c2ccccc2)cc(C(F)(F)F)c1C#N | inactive: 14.5%
Cc1nn(-c2ccccc2)c(OC(=O)c2ccc(F)cc2)c1S(=O)(=O)c1ccccc1 | inactive: -17.2%
CCN(C(=O)CCNC(=O)Cn1cnc2ccccc2c1=O)c1cccc(Cl)c1 | inactive: -6.08%
CCCn1cc(S(=O)(=O)c2ccc(C)cc2)c(=O)c2cc(OC)c(OC)cc21 | inactive: 0%
COc1ccc(C2=C(C)C(N3CCC(C(=O)Nc4cc(C)ccc4C)CC3)=NS2(=O)=O)cc1 | inactive: -12.8%
COC(=O)c1ccc(Cl)cc1NC(=O)NCc1c(-n2cccc2)sc2c1CCCC2 | inactive: 17%
O=C(Nc1cccc2cccnc12)c1cccc2ccccc12 | inactive: 22.5%
CCOc1ccc(C(=O)Nc2ccc(C(=O)OCc3cc(=O)n4ccsc4n3)cc2)cc1 | inactive: -17.4%
COc1cccc(N2CCN(C(=O)c3cc4c(=O)n(Cc5cccs5)ccc4nc3C)CC2)c1 | inactive: -27%
Cc1ccc(CNC(=O)Cn2ncc3c([nH]c4ccc(C)cc43)c2=O)cc1 | inactive: -9.55%
COc1cc(C(=O)Nc2nc3c(s2)Cc2c(Br)ccc(OC)c2-3)cc(OC)c1OC | inactive: -1.75%
CCC(Sc1nc2ccccc2c2nc(CCc3c(C)n[nH]c3C)nn12)C(=O)Nc1ccc(OC)cc1 (stereo unspecified) | inactive: -1.86%
COc1ccc(Cl)cc1NC(=O)CSc1c2c(nc3ccccc13)CCC2 | inactive: -35.7%
O=C(c1ccc2c(c1)N(Cc1ccc(F)cc1)C(=O)c1ccccc1S2=O)N1CCOCC1 (stereo unspecified) | inactive: -13.9%
CCN(c1ccccc1)S(=O)(=O)c1ccc(NC(=O)c2cc(=O)c3cc(C)ccc3o2)cc1 | inactive: 5.26%
O=C(OCC1CCCO1)c1ccc2c(c1)N(Cc1cccc(Cl)c1)C(=O)c1ccccc1S2(=O)=O (stereo unspecified) | inactive: -15.6%
Cc1ccc(NC(=O)NCCOCCn2c(=O)oc3ccccc32)cc1F | inactive: -5.48%
O=C1O[C@H](CO)[C@@H](O)[C@H](O)[C@H]1O | inactive: -7.91%

— PubChem BioAssay AID1508624 (National Center for Advancing Translational Sciences (NCATS), 2021)
